Source: the supplement of paper PMC8728848
This is one part of the list.

Legend:
Experiment in all cases: glycan array binding signal (z-score within array); higher = stronger binding
Conditions in all cases: glycan notation: IUPAC condensed, linker removed
[1] = molecular target: Fuc(a1-2)Gal(b1-4)[Fuc(a1-3)]GlcNAc
Outline: (§1)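 From the Consortium for Functional Glycomics database, 3228 arrays were curated, keeping only those whose protein sequence was available. Binding is given as a within-array Z-score averaged across arrays sharing a protein sequence and across linkers. Negative Z-scores can be read as non-binding.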

[2] = molecular target: Fuc(a1-2)Gal(b1-4)[Fuc(a1-3)]GlcNAc(b1-2)Man(a1-3)[Fuc(a1-2)Gal(b1-4)[Fuc(a1-3)]GlcNAc(b1-2)Man(a1-6)]Man(b1-4)GlcNAc(b1-4)[Fuc(a1-6)]GlcNAc
Outline: as §1

[3] = molecular target: Fuc(a1-2)Gal(b1-4)[Fuc(a1-3)]GlcNAc(b1-2)[Fuc(a1-2)Gal(b1-4)[Fuc(a1-3)]GlcNAc(b1-4)]Man(a1-3)[Fuc(a1-2)Gal(b1-4)[Fuc(a1-3)]GlcNAc(b1-2)Man(a1-6)]Man(b1-4)GlcNAc(b1-4)GlcNAc
Outline: as §1

[4] = molecular target: Fuc(a1-2)Gal(b1-4)[Fuc(a1-3)]GlcNAc(b1-3)Gal(b1-4)[Fuc(a1-3)]GlcNAc
Outline: as §1

[5] = molecular target: Fuc(a1-2)Gal(b1-4)[Fuc(a1-3)]GlcNAc(b1-3)Gal(b1-4)[Fuc(a1-3)]GlcNAc(b1-3)Gal(b1-4)[Fuc(a1-3)]GlcNAc
Outline: as §1

[6] = molecular target: Fuc(a1-2)Gal(b1-4)[Fuc(a1-3)]GlcNAc(b1-3)GalNAc
Outline: as §1

[7] = molecular target: Fuc(a1-2)Gal(b1-4)[Fuc(a1-3)]GlcNAc(b1-3)[Neu5Ac(a2-6)Gal(b1-4)GlcNAc(b1-6)]Gal(b1-4)Glc
Outline: as §1

[8] = molecular target: Fuc(a1-2)Gal3S(b1-4)GlcNAc
Outline: as §1

[9] = molecular target: Fuc(a1-2)Gal6S(b1-3)GlcNAc
Outline: as §1

[10] = molecular target: Fuc(a1-2)Gal6S(b1-3)GlcNAc6S
Outline: as §1

Fuc(a1-2)Gal6S(b1-4)Glc = molecular target: Fuc(a1-2)Gal6S(b1-4)Glc
Outline: as §1

[11] = molecular target: Fuc(a1-2)Gal6S(b1-4)Glc6S
Outline: as §1

Fuc(a1-2)[Gal(a1-3)]Gal = molecular target: Fuc(a1-2)[Gal(a1-3)]Gal
Outline: as §1

[12] = molecular target: Fuc(a1-2)[Gal(a1-3)]Gal(b1-3)GalNAc
Outline: as §1

[13] = molecular target: Fuc(a1-2)[Gal(a1-3)]Gal(b1-3)GalNAc(b1-3)Gal(a1-4)Gal(b1-4)Glc
Outline: as §1

[14] = molecular target: Fuc(a1-2)[Gal(a1-3)]Gal(b1-3)GlcNAc
Outline: as §1

[15] = molecular target: Fuc(a1-2)[Gal(a1-3)]Gal(b1-3)GlcNAc(b1-2)Man(a1-3)[Fuc(a1-2)[Gal(a1-3)]Gal(b1-3)GlcNAc(b1-2)Man(a1-6)]Man(b1-4)GlcNAc(b1-4)GlcNAc
Outline: as §1

[16] = molecular target: Fuc(a1-2)[Gal(a1-3)]Gal(b1-3)GlcNAc(b1-2)Man(a1-3)[Fuc(a1-2)[Gal(a1-3)]Gal(b1-3)GlcNAc(b1-2)Man(a1-6)]Man(b1-4)GlcNAc(b1-4)[Fuc(a1-6)]GlcNAc
Outline: as §1

[17] = molecular target: Fuc(a1-2)[Gal(a1-3)]Gal(b1-3)GlcNAc(b1-3)GalNAc
Outline: as §1

[18] = molecular target: Fuc(a1-2)[Gal(a1-3)]Gal(b1-3)GlcNAc(b1-6)GalNAc
Outline: as §1

[19] = molecular target: Fuc(a1-2)[Gal(a1-3)]Gal(b1-4)Glc
Outline: as §1

[20] = molecular target: Fuc(a1-2)[Gal(a1-3)]Gal(b1-4)GlcNAc
Outline: as §1

[21] = molecular target: Fuc(a1-2)[Gal(a1-3)]Gal(b1-4)GlcNAc(b1-2)Man
Outline: as §1

[22] = molecular target: Fuc(a1-2)[Gal(a1-3)]Gal(b1-4)GlcNAc(b1-2)Man(a1-3)[Fuc(a1-2)[Gal(a1-3)]Gal(b1-4)GlcNAc(b1-2)Man(a1-6)]Man(b1-4)GlcNAc(b1-4)GlcNAc
Outline: as §1

[23] = molecular target: Fuc(a1-2)[Gal(a1-3)]Gal(b1-4)GlcNAc(b1-2)Man(a1-3)[Fuc(a1-2)[Gal(a1-3)]Gal(b1-4)GlcNAc(b1-2)Man(a1-6)]Man(b1-4)GlcNAc(b1-4)[Fuc(a1-6)]GlcNAc
Outline: as §1

[24] = molecular target: Fuc(a1-2)[Gal(a1-3)]Gal(b1-4)GlcNAc(b1-3)GalNAc
Outline: as §1

[25] = molecular target: Fuc(a1-2)[Gal(a1-3)]Gal(b1-4)GlcNAc(b1-3)[Fuc(a1-2)[Gal(a1-3)]Gal(b1-4)GlcNAc(b1-6)]GalNAc
Outline: as §1

[26] = molecular target: Fuc(a1-2)[Gal(a1-3)]Gal(b1-4)GlcNAc(b1-6)GalNAc
Outline: as §1

[27] = molecular target: Fuc(a1-2)[Gal(a1-3)]Gal(b1-4)[Fuc(a1-3)]Glc
Outline: as §1

[28] = molecular target: Fuc(a1-2)[Gal(a1-3)]Gal(b1-4)[Fuc(a1-3)]GlcNAc
Outline: as §1

[29] = molecular target: Fuc(a1-2)[Gal(a1-3)]Gal(b1-4)[Fuc(a1-3)]GlcNAc(b1-3)GalNAc
Outline: as §1

[30] = molecular target: Fuc(a1-2)[Gal(a1-4)]Gal(b1-4)GlcNAc
Outline: as §1

[31] = molecular target: Fuc(a1-2)[GalNAc(a1-3)]Gal
Outline: as §1

[32] = molecular target: Fuc(a1-2)[GalNAc(a1-3)]Gal(b1-3)GalNAc(a1-3)[Fuc(a1-2)]Gal(b1-4)GlcNAc
Outline: as §1

[33] = molecular target: Fuc(a1-2)[GalNAc(a1-3)]Gal(b1-3)GalNAc(b1-3)Gal(a1-4)Gal(b1-4)Glc
Outline: as §1

[34] = molecular target: Fuc(a1-2)[GalNAc(a1-3)]Gal(b1-3)GlcNAc
Outline: as §1

[35] = molecular target: Fuc(a1-2)[GalNAc(a1-3)]Gal(b1-3)GlcNAc(b1-2)Man(a1-3)[Fuc(a1-2)[GalNAc(a1-3)]Gal(b1-3)GlcNAc(b1-2)Man(a1-6)]Man(b1-4)GlcNAc(b1-4)GlcNAc
Outline: as §1

[36] = molecular target: Fuc(a1-2)[GalNAc(a1-3)]Gal(b1-3)GlcNAc(b1-2)Man(a1-3)[Fuc(a1-2)[GalNAc(a1-3)]Gal(b1-3)GlcNAc(b1-2)Man(a1-6)]Man(b1-4)GlcNAc(b1-4)[Fuc(a1-6)]GlcNAc
Outline: as §1

B1: Clec2 (Mus musculus), Q9JL99 (protein)
chain: MQDEDGYITLNIKPRKQALSSAEPASSWWRVMALVLLISSMGLVVGLVALGIMSVTQQKYLLAEKENLSATLQQLAKKFCQELIRQSEIKTKSTFEHKCSPCATKWRYHGDSCYGFFRRNLTWEESKQYCTEQNATLVKTASQSTLDYIAERITSVRWIGLSRQNSKKDWMWEDSSVLRKNGINLSGNTEENMNCAYLHNGKIHPASCKERHYLICERNAGMTRVDQLL
glycan array binding signal (z-score) [1]: 0.161
glycan array binding signal (z-score) [2]: -0.189
glycan array binding signal (z-score) [3]: 0.373
glycan array binding signal (z-score) [4]: -0.444
glycan array binding signal (z-score) [5]: -0.387
glycan array binding signal (z-score) [6]: 0.059
glycan array binding signal (z-score) [7]: -0.551
glycan array binding signal (z-score) [8]: -0.777
glycan array binding signal (z-score) [9]: -0.167
glycan array binding signal (z-score) [10]: 2.16
glycan array binding signal (z-score) (Fuc(a1-2)Gal6S(b1-4)Glc): 0.095
glycan array binding signal (z-score) [11]: 1.11
glycan array binding signal (z-score) (Fuc(a1-2)[Gal(a1-3)]Gal): -0.3
glycan array binding signal (z-score) [12]: 0.353
glycan array binding signal (z-score) [13]: -0.604
glycan array binding signal (z-score) [14]: 0.367
glycan array binding signal (z-score) [15]: -0.485
glycan array binding signal (z-score) [16]: -0.397
glycan array binding signal (z-score) [17]: 0.031
glycan array binding signal (z-score) [18]: 0.298
glycan array binding signal (z-score) [19]: -0.114
glycan array binding signal (z-score) [20]: -0.69
glycan array binding signal (z-score) [21]: -0.013
glycan array binding signal (z-score) [22]: -0.683
glycan array binding signal (z-score) [23]: -0.006
glycan array binding signal (z-score) [24]: -0.063
glycan array binding signal (z-score) [25]: -0.306
glycan array binding signal (z-score) [26]: 0.309
glycan array binding signal (z-score) [27]: -0.729
glycan array binding signal (z-score) [28]: -0.319
glycan array binding signal (z-score) [29]: -0.212
glycan array binding signal (z-score) [30]: 0.332
glycan array binding signal (z-score) [31]: -0.098
glycan array binding signal (z-score) [32]: -0.388
glycan array binding signal (z-score) [33]: 0.021
glycan array binding signal (z-score) [34]: -0.625
glycan array binding signal (z-score) [35]: -0.66
glycan array binding signal (z-score) [36]: -0.887
